# Results: paper PMC4336329 (PLoS ONE, 2015)
# Hit rate of the full screen: of about 310,000 compounds, about 2,200 (0.71%) showed an effect of 50% or more. Effects have a minus sign here. The list shows a part of the results.
# Molecular target: human ether-à-go-go-related gene (hERG) potassium channel (human, UniProt Q12809)
# Assay: primary screen, population patch clamp on CHO cells stably expressing hERG
# Chain of human ether-à-go-go-related gene (hERG) potassium channel (Q12809 whole entry, looked up): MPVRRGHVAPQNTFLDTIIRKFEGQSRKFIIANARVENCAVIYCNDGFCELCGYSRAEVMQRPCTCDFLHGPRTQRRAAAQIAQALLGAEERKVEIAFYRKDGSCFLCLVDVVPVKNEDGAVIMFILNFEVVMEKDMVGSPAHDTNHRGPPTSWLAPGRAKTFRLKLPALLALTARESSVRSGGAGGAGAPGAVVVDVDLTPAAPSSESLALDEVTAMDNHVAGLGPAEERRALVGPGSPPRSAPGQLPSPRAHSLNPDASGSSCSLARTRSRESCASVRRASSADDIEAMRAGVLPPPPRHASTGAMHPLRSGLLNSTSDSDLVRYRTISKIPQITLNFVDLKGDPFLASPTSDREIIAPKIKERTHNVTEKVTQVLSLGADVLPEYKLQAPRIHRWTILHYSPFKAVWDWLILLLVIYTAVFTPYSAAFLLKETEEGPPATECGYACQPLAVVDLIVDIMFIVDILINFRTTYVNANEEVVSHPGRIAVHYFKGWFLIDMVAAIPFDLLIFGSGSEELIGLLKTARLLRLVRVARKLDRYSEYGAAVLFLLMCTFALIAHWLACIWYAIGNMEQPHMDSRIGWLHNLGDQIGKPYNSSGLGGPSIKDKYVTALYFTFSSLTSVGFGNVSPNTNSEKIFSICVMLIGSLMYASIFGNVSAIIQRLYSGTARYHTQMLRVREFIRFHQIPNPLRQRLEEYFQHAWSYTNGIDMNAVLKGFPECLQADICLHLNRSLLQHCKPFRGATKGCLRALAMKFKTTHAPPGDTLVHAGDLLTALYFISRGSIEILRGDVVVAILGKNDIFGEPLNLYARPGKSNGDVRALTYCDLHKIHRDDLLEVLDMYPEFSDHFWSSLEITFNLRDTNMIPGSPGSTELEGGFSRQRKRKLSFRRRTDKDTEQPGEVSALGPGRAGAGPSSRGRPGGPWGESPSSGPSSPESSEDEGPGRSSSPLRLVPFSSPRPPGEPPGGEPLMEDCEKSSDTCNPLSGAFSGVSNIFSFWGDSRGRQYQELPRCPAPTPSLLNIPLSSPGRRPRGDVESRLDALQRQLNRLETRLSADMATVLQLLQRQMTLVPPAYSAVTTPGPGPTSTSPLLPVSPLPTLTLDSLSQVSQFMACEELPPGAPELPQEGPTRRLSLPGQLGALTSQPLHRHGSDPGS
row,Compound,"hERG current change (%, negative = inhibition) at 1uM [%]"
1,COc1ccc(CN(C)C(=O)Cc2ccsc2)c(OC)c1OC,14.9
2,Cc1occc1-c1nnc(SCC(=O)N2CCN(c3ccc(F)cc3)CC2)n1C,-30.3
3,Cc1ccc(NC(=O)/C(=C\C=C\c2ccccc2)NC(=O)c2ccccc2)cc1,9.63
4,O=C(CCNC(=O)c1ccc(Br)cc1)NCc1ccccn1,2.25
5,CS(=O)(=O)Cc1ccc(C(=O)Nc2cccc(-c3nc4ccccc4[nH]3)c2)cc1,7.9
6,CCOC(=O)c1c(NC(=O)/C=C/C(=O)O)sc(C)c1-c1ccc(Cl)cc1,0.41
7,Cc1ccc2[nH]c3c(=O)n(CC(=O)NCCc4ccc(Cl)cc4)ncc3c2c1,4.75
8,CCOC(=O)c1cnc2c(Cl)c(Cl)ccc2c1NCCN1CCOCC1.Cl,12.3
9,C#CCN1C(=O)C(O)(CC(=O)/C=C/C=C/c2ccccc2)c2ccccc21 (centres unmarked),13.5
10,Cc1nc(C)c(C)nc1C,13.8
11,Fc1ccc(C2CCCN2Cc2nc(CC3CC3)no2)cc1 (centres unmarked),8.01
12,O=C(Oc1ccccc1)c1ccccc1OS(=O)(=O)c1ccccc1,9.57
13,CCOc1ccc(C2c3[nH]c4ccccc4c3CCN2C(=O)Cn2cncn2)cc1 (centres unmarked),3.06
14,CN(c1ccccc1)S(=O)(=O)c1ccc(NC(=O)COc2ccccc2)cc1,-5.87
15,Brc1ccc(-c2nnc(-c3ccccc3)o2)o1,-12.6
16,COc1ccc(/C=C/C(=O)NCCCc2ccccc2)cc1OC,8.52
17,CC(=O)c1ccc(S(=O)(=O)NCCC(=O)N2CCN(c3ccccn3)CC2)cc1,6.53
18,Cc1ccc(S(=O)(=O)c2cc3c(=O)n4ccccc4nc3n(C3CCCCC3)c2=N)cc1,-0.427
19,O=C(c1ccc(F)cc1)N1CCCC(C(=O)N2CCN(c3ccccc3)CC2)C1 (centres unmarked),14.6
20,NC(=S)Nc1ccc2c(c1)OCO2,12.3
21,CCc1ccc(C2C3=C(CC(C)(C)CC3=O)Nc3c2c(=O)[nH]c2nc(C)nn32)cc1 (centres unmarked),11.6
22,O=S(=O)(c1ccccc1)c1cnn2c(C(F)(F)F)cc(-c3ccc(F)cc3)nc12,-5.21

row,Compound,"hERG current change (%, negative = inhibition) at 1uM [%]"
1,COc1ccc(CNC(=O)C2CC(c3ccc(C(F)(F)F)cc3)=NO2)cc1 (centres unmarked),3.97
2,CC(C)c1ccc(OCC(=O)NC2CC(C)(C)NC(C)(C)C2)c(Br)c1,3.1
3,COc1ccccc1OCCCn1c(=O)oc2ccccc21,3.42
4,CC(C)C(=O)NCC(c1ccc2c(c1)OCO2)N1CCOCC1 (centres unmarked),12.4
5,CC(C)CC(NC(=O)c1ccco1)C(=O)Nc1ccc2c(c1)OCCO2 (centres unmarked),4.35
6,COC(=O)C(NC(=O)c1ccccc1)c1ccccc1 (centres unmarked),8.1
7,COc1ccc(S(=O)(=O)Nc2nnc(CC(C)C)s2)cc1,0.514
8,Cc1ccc(NC(=S)N(Cc2ccccc2)C(C)C)cc1,8.12
9,CC1CN(CC(=O)Nc2nc(-c3ccc(Cl)cc3)cs2)CC(C)O1 (centres unmarked),8.3
10,Cc1cccc(C(=O)NCCCNC(=O)c2cccnc2)c1,7.34
11,O=C1COc2ccc(NC(=O)N3CCN(c4ccc(F)cc4)CC3)cc2N1,-36.8
12,Cc1ccc(NC(=O)COc2coc(CN3CCN(c4ccccc4)CC3)cc2=O)cc1,1.94
13,CSc1ccc(CN(C)CC(=O)Nc2cccc(Br)c2)cc1,-2.57
14,COc1cc(NS(=O)(=O)c2ccccc2)ccc1-n1nc(C)cc1C,3.72
15,COc1cc(NC2=CC(=O)CC(C)(C)C2)cc(OC)c1,14.2
16,Cc1cccc(Cc2cnc(NC(=O)C3=NCCN3)s2)c1,7.14
17,COc1ccc(NC(=O)Nc2nnc(Cc3ccc(OC)c(OC)c3)s2)cc1,14.9
18,COc1ccc(Br)c(-c2nnc(CS(=O)(=O)c3ccccc3)o2)c1,9.57
19,COc1ccc(-c2nn(CC(=O)N(C)C)c(=O)c3ccccc23)cc1,13.1
20,O=C(Nc1cccc(S(=O)(=O)NC2=NCCC2)c1)c1ccccc1OC(F)F,8.38
21,COc1ccc(CNC(=O)NC(C)(C)c2cccc(C(C)(C)NC(=O)NCc3ccc(OC)cc3)c2)cc1,6.21
22,COc1ccc(S(=O)(=O)N2CCNC(=O)C2)cc1Br,6.75

row,Compound,"hERG current change (%, negative = inhibition) at 1uM [%]"
1,CCn1nc(NS(=O)(=O)c2cccc3nonc23)c2cc3ccc(C)cc3nc21,8.87
2,CCOc1ccccc1N(CC(=O)NCc1ccco1)C(=O)CCC(=O)Nc1nccs1,10.3
3,Cc1ccccc1C(=O)Nc1ccc(C(=O)N/N=C/c2ccccn2)cc1,11.8
4,CCc1ccccc1NS(=O)(=O)c1cccc2nsnc12,9.16
5,Cc1cc(OCCCC(=O)NCCc2ccccn2)ccc1Cl,19.1
6,CCCC1NC(C(=O)O)Cc2c1[nH]c1ccccc21 (centres unmarked),12.8
7,Cc1cccc(NC(=O)CSCC(=O)Nc2cc(S(=O)(=O)N3CCOCC3)ccc2N2CCCC2)c1,-4.81
8,CCN(CC(=O)Nc1ccc(OC)cc1)C(=O)c1ccc2[nH]c3c(c2c1)CC(C)CC3 (centres unmarked),3.18
9,COc1ccc(-c2nc(N)n(C(=O)c3ccc(C)cc3)n2)cc1,6.43
10,CCc1nnc(NC(=O)COc2ccc3ccccc3c2)s1,16.6
11,CC(C)C[C@H](NC(=O)[C@H](Cc1ccccc1)n1c(=O)[nH]c2ccccc2c1=O)C(=O)N1CCC(C(=O)O)CC1,10.1
12,COc1ccc(C(=O)Nc2cccc(N(C)S(C)(=O)=O)c2)cc1OC,5.37
13,Cc1cc(NC(=O)COC(=O)C2CC(=O)N(c3ccc(Cl)cc3)C2)no1 (centres unmarked),5
14,CCC(=NCCO)c1c(O)n(C2CCCCC2)c(=O)[nH]c1=O,-4.1
15,Cc1ccc(NC(=S)N2CCN(C(=O)C3CCCO3)CC2)c(C)c1 (centres unmarked),-1.16
16,O=C(O)CC1(CC(=O)Nc2ccc3ccccc3n2)CCCCC1,15.2
17,N#Cc1c(-c2ccccc2)cc(-c2ccccc2)nc1SCc1nnc(-c2ccccc2)o1,12.2
18,COc1ccccc1C(=O)Oc1cc(N)n(S(=O)(=O)c2ccccc2)n1,11.1
19,Cc1ccc(-c2csc3ncnc(SCc4ccc(C(=O)O)cc4)c23)cc1,-2.34
20,c1cncc(-c2cn(C[C@H]3CC[C@@H]([C@@H]4CC[C@H](Cn5cc(-c6cccnc6)nn5)O4)O3)nn2)c1,-17.7
21,Cc1ccc(Nc2ccc(C(=O)O)cc2[N+](=O)[O-])cc1,10.5
22,CCc1nc2c(c(=O)c3ccccc3n2C)c(=O)n1-c1ccc(F)cc1,8.24

row,Compound,"hERG current change (%, negative = inhibition) at 1uM [%]"
1,COCCN(C(=O)CCC(=O)Nc1nccs1)C(C(=O)NCCC(C)C)c1ccc(F)cc1 (centres unmarked),-2.01
2,CCOC(=O)N1CCN(S(=O)(=O)c2c(C)cc(C)cc2C)CC1,4.19
3,CC1CC(C)CN(Cc2nc3c(c(=O)n(C)c(=O)n3C)n2CCN2CCOCC2)C1 (centres unmarked),3.67
4,Cc1csc(=O)n1CCC(=O)OCC(=O)c1c(N)n(CC(C)C)c(=O)n(C)c1=O,15.8
5,O=C(NCCCN1CCCC1)c1ccc(Cn2c(=S)[nH]c3ccc(Br)cc3c2=O)cc1,19.5
6,CC1C(c2ccccc2)=NNc2nc3c(c(=O)n(C)c(=O)n3C)n21 (centres unmarked),10.8
7,O=C(CSc1ccc([N+](=O)[O-])cn1)Nc1ccc2[nH]c(=O)[nH]c2c1,13.1
8,COc1cccc(-c2nnn(CC(=O)N(CC(C)C)C3CCS(=O)(=O)C3)n2)c1 (centres unmarked),3.74
9,O=C(CCc1nnc2n(Cc3ccc(F)cc3)c(=O)c3ccccc3n12)N1CCN(c2ccccn2)CC1,-33.7
10,CCOC(=O)c1c(C)[nH]c(C)c1S(=O)(=O)N(C)CC(=O)Nc1ccc(C)cn1,6.69
11,C=CCn1c(SCCN2C(=O)c3ccccc3C2=O)nc2scc(-c3ccccc3)c2c1=O,1.5
12,CC(C)(C)OC(=O)N1CCC(c2c(C(=O)N3CCN(C(=O)c4ccco4)CC3)cnn2-c2ccc(F)cc2F)CC1,3.08
13,CC(C)(C)c1nc[nH]c(=O)c1Br,15.2
14,Cc1ccc(-n2nnc3c(=O)n(CC(=O)NCC4CCCO4)cnc32)cc1 (centres unmarked),5.51
15,CN1CCN(c2ccc(NC(=O)CN3CCOCC3)cc2F)CC1,14.5
16,CCOc1ccccc1-c1nc(-c2ccc(NC(=O)Cc3ccccc3OC)cc2)no1,17.1
17,CC1=C(C(=O)OCC(C)C)C(c2ccc(Br)s2)NC(=O)N1 (centres unmarked),12.2
18,C=CC[N+](C)(C)c1ccc(CCC(=O)CCc2ccc([N+](C)(C)CC=C)cc2)cc1.[Br-],7.44
19,Cc1ccc(C(=O)Nc2ccc3c(c2)OCCO3)c(Cl)c1,15.9
20,CC(C)(C)NC(=O)C(c1ccc(F)cc1)N(CC1CCCO1)C(=O)CCC(=O)Nc1ccccn1 (centres unmarked),7.36
